Measurements taken from PubChem BioAssay AID1508624 (National Center for Advancing Translational Sciences (NCATS), 2021).
About 120 (0.25%) of roughly 48,000 compounds were called active. Roughly 4% stayed inconclusive and do not appear here. The call rests on the fitted dose curve; in most records, active means well fitted activation curve with a large enough effect; inconclusive means small, poorly fitted or top-dose-only effect, or another doubt; inactive means no such curve, though single readings can be large or run the other way. Some of the results follow.

Experiment: Primary qHTS for Identification of Small Molecule Activators of Huntingtin-Antisense Promoter Activity; further: nearly all actives have a fitted effect of over 55% in size
Details: HEK293 HTT-AS promoter firefly luciferase reporter, 24 h; series mostly up to 57.5 µM; activity change, positive = activation: at the top concentration
In short: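 HEK293 Fluc reporter, 2,500 cells/well, 24 h pre-culture; cpds up to 57.5 uM final, 24 h 37 degrees C; Dual-Glo, 10 min RT; normalized vehicle = 0%, zero RLU = -100%.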

Activity change, positive = activation, inactive:
Cc1ccc(-c2nnn3c2nc(N2CCC(C)CC2)c2ccccc23)cc1 12.1%
CCOc1ccc(S(=O)(=O)NCCc2csc3nc(-c4cccc(C)c4)nn23)cc1 -38.9%
Cc1ccc(C(=O)Nc2nnc(S(=O)(=O)N3CCCc4ccccc43)s2)cc1 15.3%
COc1ccc(CCNC(=O)c2ccc(CSCc3ccc(C)cc3)o2)cc1OC -31.8%
COc1ccc(C(=O)Nc2ccc3nc(N4CCCCC4)cc(C)c3c2)cc1OC -19.9%
COCCCNC(=O)C1CCN(C(=O)c2cc3sccc3n2Cc2ccc(Cl)cc2)CC1 -35.8%
Cc1cccc(CSc2ccc3nnc(CCNS(=O)(=O)c4ccccc4)n3n2)c1 -24.4%
CC(=O)N1CCc2c(sc3c2c(=O)n(-c2ccccc2)c(=O)n3CC(=O)c2ccc(Cl)cc2)C1 -2.53%
O=C(NCc1cccc(F)c1)C1CCN(c2nc3ccccc3nc2C(F)(F)F)CC1 14.9%
COCCNC(=O)CCn1c(=O)c2cc(OC)c(OC)cc2n(CC(=O)Nc2ccc(F)c(Cl)c2)c1=O -5.43%
Cc1cc(C)c(NC(=O)Cn2c(=O)n(-c3cccc(C(F)(F)F)c3)c(=O)c3c(C)c(C)sc32)c(C)c1 -2.04%
O=C(O)c1ccc(Nc2nc3ccccc3c3nncn23)cc1 16.8%
COc1ccccc1NC(=O)C(Cc1ccccc1)NS(=O)(=O)c1ccc2c(c1)CCN2C(C)=O (centres undefined) -11.9%
CC(=O)N1CCOc2cc(S(=O)(=O)NCc3ccccc3Cl)c(C)cc21 -12.2%
CCc1ccccc1Nc1nn2c(=O)c3ccc(C(=O)NCc4ccc(C)cc4)cc3nc2s1 -32.1%
NC(=O)c1ccc(N(C(N)=O)c2c(F)cccc2F)nc1-c1ccc(F)cc1F -14.1%
O=C(NC1CCCCCC1)C1CCN(C(=O)N2CCOc3ccc(Cl)cc32)CC1 -11.5%
CCCCc1nn2c(=O)cc(COC(=O)c3cccc(NC(=O)COc4ccccc4)c3)nc2s1 25%
Cc1ccc(C2=NN(CC(=O)NCCCN(CC(C)C)CC(C)C)C(=O)CC2)cc1 -5.78%
Cc1cc2[nH]c(=O)c(=O)[nH]c2cc1S(=O)(=O)NCc1ccc(F)cc1 -12%
CCOCCCNC(=O)c1ccc2c(c1)NC(=O)C(CS(=O)(=O)Cc1ccc(F)cc1Cl)N2 (centres undefined) -20.9%
Cc1cc(C)n(-c2nc3ccccc3nc2Nc2ccc(C(C)C)cc2)n1 1.22%
O=C(Nc1ccc(Cl)cc1Cl)c1cc(S(=O)(=O)N2CCC3(CC2)OCCO3)ccc1F -31.3%
CCN(CCCNC(=O)CSc1cc(=O)n(C)c2ccccc12)c1ccccc1 -2.72%
CCOc1cccc(NC(=O)C2CC(=O)N(C)C(=Nc3cccc(OC)c3)S2)c1 (centres undefined) -28.2%
CCC(=O)OCC(=O)[C@@]1(OC(=O)CC)[C@@H](C)C[C@@H]2[C@H]3CCC4=CC(=O)C=C[C@]4(C)[C@@]3(F)[C@@H](O)C[C@@]21C -25.2%
Cc1cc(C)c(NC(=O)C(C)n2c(=O)cc(C)c3c(C)nn(-c4ccccc4)c32)c(C)c1 (centres undefined) 1.72%
O=C1CS(=O)(=O)C2(C(=O)Nc3ccccc32)N1c1cccc(Cl)c1 (centres undefined) -14%
COc1cccc2c1cc1c(=O)n(CC(=O)N3CCN(c4ccccc4F)CC3)nc(C)n12 -11.2%
CCOc1ccc(NC(=O)CCCc2nc(-c3cccc(OC)c3)no2)cc1 -3.15%
Cc1ccc(CNC(=O)c2sc3nc(C)cc(C)c3c2-n2cccc2)cc1 -3.43%
CC(C)(C)C(=O)Nc1cc(-c2cccc(Br)c2)nn1-c1ccccc1 -2.52%
CCOC(=O)c1ccc(NC(=O)CSc2nc3ncc(Br)c(C)c3[nH]2)cc1 6.93%
CC(=O)Oc1ccccc1C(=O)Nc1ncc([N+](=O)[O-])s1
COCCCNC(=O)c1ccc(Cn2c(=O)c3ccccc3n(CC(N)=O)c2=O)cc1 -17.6%
CCC(=O)N1c2ccccc2CC1C(=O)NCCCN1CCN(c2cc(C)ccc2C)CC1 (centres undefined) -22.8%
COc1ccc(-c2cc3nc(N)cc(=O)n3[nH]2)cc1 16.8%
CCN(C(=O)c1ccc2c(c1)N(Cc1cccc(Cl)c1)C(=O)c1ccccc1S2=O)c1ccccc1 (centres undefined) -61.4%
O=C(NCCCc1nc2ccccc2n1Cc1ccc(F)cc1)C1CCCCC1 -20.7%
Cc1ccc(C)c(CSc2nc3c([nH]c4ccccc43)c(=O)n2C)c1 -5.89%
CC(C)c1ccc2oc(-c3ccc(Cl)c(NC(=O)c4cccs4)c3)nc2c1 -27.5%
Cc1cccc(C)c1OCc1cc(=O)n2c(-c3ccccc3)csc2n1 -25.7%
Cn1nc(-c2ccc(OCC(=O)Nc3cccc(C(F)(F)F)c3)cc2)c2ccccc2c1=O -48.9%
COc1ccc(NC(=O)c2cc(S(=O)(=O)N3CCOCC3)cn2C)cc1Cl -21.2%
Cc1ccc(C(=O)Nc2ccc(F)cc2)cc1S(=O)(=O)N1CCCCCC1 -29.7%
CCN(CC)CCOC(=O)C1(C2CCCCC2)CCCCC1 -11.4%
Cc1ccccc1NC(=O)C1CCC(CNS(=O)(=O)c2ccc3c(c2)C(C)(C)C(=O)N3C)CC1 (centres undefined) -26.8%
CCCCOCCOCCOCc1cc2c(cc1CCC)OCO2
Oc1ccccc1 1.33%
CCOc1ccc(CCNC(=O)c2cn(C)c3ccc(S(=O)(=O)N4CCOCC4)cc3c2=O)cc1OCC 5.95%
Cc1ccc(-n2ncc3c(N(C)Cc4ccccc4)ncnc32)cc1 -29.8%
Cc1cc(NS(=O)(=O)c2ccc(NC(=O)c3ccccc3F)cc2)nc(C)n1 -20.1%
Cc1cccc(Cn2c(C)c(C)c3cc(C(=O)NCc4ccco4)ccc32)c1 -30.5%
COc1ccc(S(=O)(=O)NCCc2csc3nc(-c4ccc(Cl)cc4)nn23)cc1C -28.9%
CS(=O)(=O)N1CCc2cc(S(=O)(=O)NCc3ccccc3Cl)ccc21 -29.2%
COc1ccc2[nH]c(=O)c(CN(C(=O)c3cccc(Cl)c3)c3ccccc3OC)cc2c1 -23.9%
CC(=O)Nc1ccccc1OCc1cc(=O)n2c3c(sc2n1)CCCC3 -8.17%
Cn1c2ccccc2c2cnn(CC(=O)NCc3ccc(Cl)cc3)c(=O)c21 -1.71%
COc1ccc(-c2nc(Cn3c(SCc4cccc(Cl)c4)nc4ccncc43)c(C)o2)cc1 -36.6%
Cc1ccc(Sc2c(C)nn(C(=O)COc3ccccc3)c2C)cc1 0.362%
Cn1cnc(S(=O)(=O)N2CCC(C(=O)NCc3ccccc3)CC2)c1 -9.15%
CC1=C(c2ccc(F)cc2)S(=O)(=O)N=C1N1CCC(C(=O)NCCc2ccco2)CC1 -21.5%
CCOC(=O)c1c(S(=O)(=O)N2CCCC(C(=O)N(C)Cc3ccccc3)C2)c(C)n(C)c1C (centres undefined) 9.27%
COc1cc(NC(=O)Cn2ccn(Cc3ccccc3OC)c(=O)c2=O)cc(OC)c1 -8.63%
O=C(CN1CCN(Cc2ccc(F)cc2Cl)S1(=O)=O)Nc1ccc(F)cc1 -27%
Cc1ccc(C(c2sc3nc(-c4ccco4)nn3c2O)N2CCOCC2)cc1 (centres undefined) -7.32%
COc1ccccc1NC(=O)CSc1nc2ccccc2c(=O)n1CCC(=O)NC1CCCCC1 5.66%
Cc1cccc(-n2c(-c3ccco3)nc3c(cnn3-c3ccccc3C)c2=O)c1 -36.4%
Cc1ccc(Cn2nc(C)c(NC(=O)c3cc(-c4ccc(F)cc4)on3)c2C)cc1 -37.7%
Cc1ccc(NC(=O)Cn2c(C)cc(C)c(C#N)c2=O)cc1 -1.41%
CCOc1ccc(NC(=O)Cn2c(=O)oc3cc(S(=O)(=O)NC4CCCC4)ccc32)cc1 -27%
CCC(=O)N1CCc2cc(Br)cc(S(=O)(=O)CCC(=O)N3CCN(c4ccccc4OC)CC3)c21 6.74%
COc1ccc(-c2ccnc3[nH]n(-c4ccccc4)c(=O)c23)cc1 -4.28%
COc1ccccc1N1CCN(S(=O)(=O)c2ccc3[nH]c4c(c3c2)CCCC4)CC1 -35.8%
CCOc1cc(-c2nnc(SCC(=O)NCc3ccccc3)nc2-c2ccc(OC)c(OCC)c2)ccc1OC -30.5%
COc1ccc(/C=C\c2onc(C)c2S(=O)(=O)N2CCC(C(=O)Nc3ccc(Cl)cc3)CC2)cc1 -18.1%
CCc1ccc(NC(=O)C2CCCN(S(=O)(=O)c3ccc4c(c3)CCCN4C(C)=O)C2)cc1 (centres undefined) -29.1%
Cc1ccc(-n2ncc(C(=O)N3CCCCC3)c2C2CCN(C(=O)OC(C)(C)C)CC2)cc1C -2.39%
COc1ccc(C(=O)N2CC(=O)Nc3ccc(C)cc3C2c2ccccc2)c(OC)c1 (centres undefined) -9.1%
Cc1cccc(OCC(=O)NCC2(N3CCN(C)CC3)CCCCC2)c1C -15%
COc1ccc(OCc2ccc(-c3nc(C#N)c(N4CCC(C)CC4)o3)o2)cc1 -29.3%
CCCNC(=O)C(=O)NCC(c1ccc2c(c1)OCO2)N1CCOCC1 (centres undefined) -11.1%
CCc1ccc(S(=O)(=O)c2nnn(-c3ccc(F)cc3)c2N)cc1 -36.7%
CCc1ccc(NC(=O)CSC2=Nc3ccccc3C3=NC(CC(=O)NC4CCCCC4)C(=O)N23)cc1 (centres undefined) 7.53%
Cc1ccc2c(=O)cc(C(=O)Nc3ccc(S(=O)(=O)Nc4nc(C)cc(C)n4)cc3)oc2c1 20.3% [at 11.5 µM, percent change from vehicle, -100% = no light]
COc1ccc(NC(=O)C2CCCN(S(=O)(=O)c3ccc4c(c3)CCCC(=O)N4)C2)cc1OC (centres undefined) -34.1%
CCCOC(=O)c1ccccc1 -0.759%
O=C(C1CCN(c2ncnc3c2nc2n3CCCCC2)CC1)N1CCN(c2ccc(F)cc2)CC1 -17.8%
CCOc1cc(C2C(C(=O)Nc3ccc(OC)cc3)=C(C)Nc3nc(SC)nn32)ccc1O (centres undefined) -9.03%
CCOc1ccc(/C=C/c2nc(C#N)c(N3CCCCC3)o2)cc1 -17.7%
Cc1ccc(OCC(=O)NCC2(N3CCOCC3)CCCCC2)cc1C -28%
CCCCN(CCCC)CCNC(=O)c1cn(CC)c2ccc(S(=O)(=O)N3CCc4ccccc4C3)cc2c1=O -1.66%
CCCN(CCC)CCNC(=O)CN1C(=O)COc2ccc(S(=O)(=O)N3CCC(C)CC3)cc21 -10.6%
CCOC(=O)Cn1nc(-c2ccccc2)c2cnc3ccc(OCC)cc3c21 -23.5%
